Whole data set: some 110,000 compounds, median “z-score” near -0.1, cut for the highest 2% near 2. The list shows a part of the results.

In the assay the target is Metabotropic glutamate receptor 8 (Rattus norvegicus) (UniProt P70579). The experiment in a line: rat mGluR8 modulators via GIRK flux, primary screen, cell-based, thallium flux, HTS (AID 488969). Particulars: HEK293 rat mGluR8, GIRK (G protein-gated inwardly rectifying potassium channel) thallium flux, FluoZin2; at 10 µM; stronger effect = higher value; submaximal glutamate (EC20) added with thallium.
Sequence of UniProt P70579 (P70579 whole entry, looked up): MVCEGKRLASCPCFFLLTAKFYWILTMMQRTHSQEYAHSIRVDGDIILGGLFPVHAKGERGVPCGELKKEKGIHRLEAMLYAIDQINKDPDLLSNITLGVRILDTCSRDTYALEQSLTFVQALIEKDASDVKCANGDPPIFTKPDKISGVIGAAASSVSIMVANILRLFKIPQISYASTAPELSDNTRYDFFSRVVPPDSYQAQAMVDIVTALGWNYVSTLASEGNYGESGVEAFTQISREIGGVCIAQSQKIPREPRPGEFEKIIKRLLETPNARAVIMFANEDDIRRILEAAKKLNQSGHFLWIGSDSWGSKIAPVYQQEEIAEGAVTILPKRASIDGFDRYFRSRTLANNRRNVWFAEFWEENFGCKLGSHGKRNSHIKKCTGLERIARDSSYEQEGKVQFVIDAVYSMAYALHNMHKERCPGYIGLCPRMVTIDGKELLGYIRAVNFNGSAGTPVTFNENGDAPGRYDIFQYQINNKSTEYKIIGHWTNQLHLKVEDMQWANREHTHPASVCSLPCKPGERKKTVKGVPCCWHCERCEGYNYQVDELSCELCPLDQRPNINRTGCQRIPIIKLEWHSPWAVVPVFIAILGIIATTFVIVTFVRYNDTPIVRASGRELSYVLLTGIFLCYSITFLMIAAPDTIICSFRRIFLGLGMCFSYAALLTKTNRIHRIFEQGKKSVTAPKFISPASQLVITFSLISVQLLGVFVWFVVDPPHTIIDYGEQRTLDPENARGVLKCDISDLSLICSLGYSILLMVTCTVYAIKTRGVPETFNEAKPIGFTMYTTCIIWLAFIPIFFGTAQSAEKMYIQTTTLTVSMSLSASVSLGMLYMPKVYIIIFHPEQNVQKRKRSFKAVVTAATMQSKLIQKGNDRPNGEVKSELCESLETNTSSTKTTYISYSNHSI
Compound `Cc1nn(Cc2ccccc2)c2c1C(c1cccc(Cl)c1)C(C#N)=C(N)O2` (stereo not given) had a z-score of -0.363. For the compound `CCn1c(SCC(=O)Nc2ccc(C)cc2)nnc1-c1ccc(O)cc1`, the z-score was -0.0225.

`COc1cccc(OCC(=O)NNC(=O)c2ccc(-c3ccccc3)cc2)c1` showed a z-score of 0.902.

Regarding `CCC(C)(C)n1nnnc1CN1CCC(NC(=O)c2ccc(Br)cc2)CC1`, the z-score was -0.157.

Regarding `COc1cccc(-c2nn(-c3ccccc3)cc2C(=O)n2nnc3ccccc32)c1`, the z-score is -0.256.

Regarding `Cc1cccc(C)c1OCCCCn1cnc2ccccc2c1=O`, the z-score was -0.233. `COc1ccc(-n2c(C)c3c(OC)cccc(=O)c3c2C)cc1` gave a z-score of -0.867. Under `O=C(CN1CCC(n2nnc3cc(F)ccc32)CC1)NCCc1nc2ccccc2[nH]1` stands -0.24; under `Cn1c(C(=O)NCC2CCCO2)cc2c(=O)[nH]c3ccccc3c21` (stereo not given), 0.496. In turn, `COC(=O)c1nnn(-c2nonc2N)c1-c1cccs1` came in with a z-score of 0.385. Under `CCN(CCCNC(=O)CCNC(=O)Cn1cnc2ccccc2c1=O)c1cccc(C)c1` stands 0.0158.

Compound `COc1ccc2nc(NC(=O)C3CCCN(S(=O)(=O)c4cccc5nonc45)C3)sc2c1` (stereo not given) registered a z-score of 0.126. Consider `O=C(NCc1ccccc1)N[C@@H](Cc1ccccc1)C(=O)O`, for which the z-score worked out at 0.167.

As to `O=C(Nc1cccc(Cl)c1)Nc1cccc(Cl)c1`, the z-score was determined as 0.0262.

`C=C(C)COc1ccc(-c2[nH]ncc2Oc2ccccc2OCC)c(O)c1` registered a z-score of -1.64. In the case of `CC(C)Nc1nc(Cl)nc(NN(C)c2nc(N(C)C)nc(N(C)C)n2)n1`, the z-score came to 0.269. Consider `CC(NC(=O)CSC1=NCCS1)c1ccccc1` (stereo not given), for which the z-score amounted to 0.151. With `O=C(Cn1cc(C(F)(F)F)ccc1=O)Nc1cccc(S(=O)(=O)N2CCOCC2)c1`, the z-score was -0.446. In the case of `COC(=O)C(Cc1ccc(O)cc1)NC(=O)c1ccccc1` (stereo not given) it was -0.0744; in that of `Cc1cc(C)cc(NC(=O)c2ccc3nc[nH]c3c2)c1`, -0.137; in that of `Cc1c(C(=O)N2CCOCC2)[nH]c2c1C(=O)CC(c1ccccc1Cl)C2` (stereo not given), -0.491. Compound `NS(=O)(=O)c1ccc(NC(=S)NC2CCCC2)cc1` registered a z-score of 0.0124. Compound `O=C(Cn1cc(C(=O)c2ccco2)c2ccccc21)Nc1ccccc1` showed a z-score of 0.311. `COCCN1Cc2cccc(C(=O)Nc3ccc(-c4nc5ccccc5[nH]4)cc3)c2C1=O` displayed a z-score of -0.0431. Under `CC1CCc2nc(NC(=O)Cc3cccs3)sc2C1` (stereo not given) stands -0.0944; under `CCOc1cc(C2C(C#N)=C(N)OC(C)=C2C(C)=O)cc(Br)c1O` (stereo not given), -1.08; under `N#Cc1c(-c2ccc(F)cc2)nc2n(c1=O)CCS2`, -0.0466.

The compound `COc1cccc(N2CC(C(=O)Nc3ccc(C(=O)OC(C)C)cc3)CC2=O)c1` (stereo not given) had a z-score of -0.924. Compound `O=C(CSc1ccc(Cl)cc1Cl)N1CCC(c2nc3ccccc3s2)CC1` registered a z-score of -0.291. The compound `CCOc1ccc(-n2c(N)c(C(=O)NCC3CCCO3)sc2=S)cc1` (stereo not given) displayed a z-score of 1.74.

These data come from PubChem BioAssay AID488969 (Vanderbilt High Throughput Screening Facility, 2010).
